Our source for the survival values is PubChem BioAssay AID463173 (ICCB-Longwood Screening Facility, Harvard Medical School, 2010).

The campaign covered roughly 52,000 compounds. About 4,300 (8.3%) were called active. Cut-off read from the data, not from the text of the source: active = survival mostly below about 52% (no sharp cut-off); inactive = mostly above about 56%. The list shows a part of the results.

For this assay, the system named is DeltatarO mutant. The experiment in a line: S. aureus survival, RN4220 and DeltatarO strains – OD600, teichoic acid synthesis inhibitors, primary screen (AID 463173). To be noted: S. aureus RN4220 wild type/DeltatarO growth, OD600, 18 h, stronger effect = lower value, screened at 18.75 µg/mL (by protocol).
In the case of `COCCN1C(=O)c2[nH]nc(-c3c(C)cc(C)cc3O)c2C1c1cccc(O)c1` (configuration not stated), the survival was inactive: 57%.
Turning to `Cc1c(NC(=O)CN2C(=O)c3cccc4cccc2c34)c(=O)n(-c2ccccc2)n1C`, the survival is inactive: 98%.
The result for `CC(C)Cn1c(N2CCN(C(=O)Nc3ccc(Cl)cc3)CC2)nc2ccccc21` reads inactive: 102%.
In the case of `CC(=O)c1ccc(NC(=O)C2CCC(CNS(=O)(=O)c3cccc4nsnc34)CC2)cc1` (configuration not stated), the survival is inactive: 110%.
In the case of `Cc1cccn2c(=O)c(C(=O)NCCc3ccc(Cl)cc3)cnc12`, the survival is inactive: 83%.
For `CC(C)(C)OC(=O)N1CCC(c2c(C(=O)N3CCN(C(=O)c4ccco4)CC3)cnn2-c2ccc(Cl)cc2)CC1`, the survival was inactive: 83%.
With `CCc1ccccc1N1C(=O)N(Cc2cccc(Cl)c2)c2ccccc2S1(=O)=O`, the survival was inactive: 83%.
Regarding `Cc1ccc(Cn2c(SCc3ccc(C(=O)NCCc4ccccc4)cc3)nc3ccncc32)cc1`, the survival is inactive: 77%.
For `Cc1nc(-c2ccc(C)c(N3CCN(C(=O)Nc4ccc(Br)cc4)CC3)c2)no1`, the survival was active: 17%.
For `CCn1cc(S(=O)(=O)c2cccc(C)c2)c(=O)c2cc(F)c(N3CCCCC3C)cc21` (configuration not stated) the value was inactive: 83%; for `COc1ccc(-n2c(=O)c3sc4ccccc4c3n(CC(=O)N3CCCC3)c2=O)cc1`, inactive: 96%.
With `CS(=O)(=O)c1nc(-c2ccc(Br)cc2)n[nH]1`, the survival is inactive: 92%.
For `COc1ccc(-c2cn3c(n2)sc2cc(C(=O)Nc4ccccc4F)ccc23)cc1` the value was inactive: 44%.
For `COc1ccc(-n2c(SCC(=O)N3CCCc4ccccc43)nc3c([nH]c4ccccc43)c2=O)cc1` the value was inactive: 101%.
In the case of `Cc1ccc(C)n1-c1ccc(NC(=O)c2ccccc2)cc1`, the survival is inactive: 79%.
For `c1coc(-c2nc3ccccn3c2Nc2ccc3c(c2)OCCO3)c1` the value was active: 53%.
As to `CCOc1ccc(NC(=O)CCS(=O)(=O)c2ccc3nc(C)sc3c2)cc1`, the survival is inactive: 55%.
Consider `COc1cc(Cl)c(C)cc1NC(=O)c1cnn(-c2ccc(C)cc2)c1-n1cccc1`, for which the survival is inactive: 57%.
Regarding `O=C(O)CCCC(=O)N1CCc2cc(S(=O)(=O)NCc3ccccc3)ccc21`, the survival was inactive: 111%.
For the compound `CCOC(=O)c1[nH]c2c(c1Cc1ccccc1)C(=O)CC(c1ccc(OC)cc1)C2` (configuration not stated), the survival is inactive: 76%.
On to `CCSc1nc2c([nH]c3ccccc32)c(=O)n1-c1ccc(OC)cc1`, for which the survival is active: 46%.
For `CCC1CCCCN1C(=O)c1sc2nc(C)cc(C)c2c1N` (configuration not stated), the survival was inactive: 87%.
For `CCOC(=O)c1ccc(NC(=O)c2cnc(N3CCCC3)nc2C)cc1` the value was inactive: 94%; for `CC1CCCN(c2ncnc3c2nc2n3CCCCC2)C1` (configuration not stated), inactive: 94%.
In the case of `CN(C)c1ccc(CNc2nc(-c3ccco3)nn2S(C)(=O)=O)cc1`, the survival is inactive: 64%.
As to `Cc1ccccc1Cn1c(=O)n(CCCCC(=O)NCCc2ccccc2)c(=O)c2ccccc21`, the survival is inactive: 83%.
For `CCc1ccc(NC(=O)CSC2=Nc3ccccc3C3=NC(CC(=O)NCc4ccc5c(c4)OCO5)C(=O)N23)cc1` (configuration not stated), the survival was inactive: 107%.
In the case of `CCc1ccc2occ(CC(=O)Nc3c(C(=O)Nc4ccc(Cl)cc4)oc4ccccc34)c2c1`, the survival was inactive: 73%.
Turning to `CN(C)CCNC(=O)c1ccc2nc(CCc3ccccc3)oc2c1`, the survival was inactive: 71%.
As for `Cc1ccc(CNC(=O)C(=O)NCC(c2cccs2)S(=O)(=O)c2cccs2)cc1` (configuration not stated), the survival was inactive: 98%.
As to `CC(C)(C)OC(=O)N1CCC(c2c(C(=O)Nc3ccc4c(c3)OCO4)cnn2-c2ccc(F)cc2F)CC1`, the survival is inactive: 84%.
Take `COc1ccc(NC(=O)/C(C#N)=C/c2ccc(C)o2)cc1`: the survival was inactive: 77%.
Regarding `CCOC(=O)CSC1=Nc2ccccc2C2=NC(CCC(=O)NCc3ccccc3)C(=O)N12` (configuration not stated), the survival is inactive: 98%.
For `COc1ccc(NC(=O)CN(c2cccc(C)c2C)S(=O)(=O)c2ccccc2)cc1OC` the value was inactive: 61%; for `Cc1cc2c(cc1C)C(c1cccc(OC(C)C)c1)CC(=O)N2` (configuration not stated), inactive: 77%.
In the case of `CCCCN(C)CCCNC(=O)Cn1nc(CC)n2c(cc3sc(C)cc32)c1=O`, the survival is inactive: 90%.
Regarding `COc1ccc(C(=O)N2CCN(C(=O)COc3ccc(Br)cc3)CC2)cc1OC`, the survival was inactive: 60%.
Turning to `CCc1ccc2[nH]c3nc(SCC(=O)OC(C)C)nnc3c2c1`, the survival is inactive: 108%.
Regarding `COCCn1c(SCC(=O)c2ccccc2)nc2cc(C(=O)NC3CCCC3)ccc2c1=O`, the survival was inactive: 87%.
The result for `CCn1c(SCC(=O)Nc2nc(C)cs2)nnc1C(C)Oc1ccccc1` (configuration not stated) reads inactive: 85%.
In the case of `CCc1ccc2nc(N(Cc3cccnc3)C(=O)c3cccs3)sc2c1`, the survival is inactive: 122%.
As for `CC(C)c1ccc(S(=O)(=O)Nc2ccc(O)c(Sc3nc4ccccc4s3)c2)cc1`, the survival was active: 1%.
Consider `CC(=O)c1ccc(NC(=O)CSc2nccn2Cc2ccco2)cc1`, for which the survival was inactive: 83%.
Take `CSc1cccc(NC(=O)C2CCN(S(=O)(=O)c3ccc4[nH]c(=O)ccc4c3)CC2)c1`: the survival is inactive: 103%.
`CC(=O)N1CCN(c2ccc(NC(=O)COc3ccc(Cl)c(C)c3)cc2)CC1`: the survival is inactive: 68%.
As to `CCN(CC)CCN(C(=O)c1ccc(C(=O)OC)cc1)c1nc2ccc(Cl)cc2s1`, the survival is active: -4%.
The result for `CCOC(=O)C1(C)C=C(Nc2ccc(C)cc2)C(=O)N1c1ccccc1` (configuration not stated) reads inactive: 50%; that for `COc1cc2c(=O)c(S(=O)(=O)c3ccc(C)cc3)cn(Cc3cccc(C)c3)c2cc1OC`, inactive: 70%.
The result for `CC1CN(C(=O)N2CCC(C(=O)NCCC3=CCCCC3)CC2)c2ccccc2O1` (configuration not stated) reads inactive: 107%; that for `CCCCNC(=O)C1CCCN(c2nnc(C)c3c(C)n(-c4ccc(Cl)cc4)nc23)C1` (configuration not stated), inactive: 67%; that for `O=C(CSc1nnc(-c2cccs2)o1)Oc1ccc(Cl)cc1`, inactive: 65%.
Turning to `CC1CCN(CN2C(=O)CCC2=O)CC1`, the survival was inactive: 95%.
Consider `O=c1nc2ccccn2c2c1c(=O)[nH]c1ccccc12`, for which the survival is inactive: 106%.
For the compound `CC(Oc1ccccc1F)C(=O)NCC1(N2CCOCC2)CCCCC1` (configuration not stated), the survival was inactive: 61%.
In the case of `Cc1cc(C)cc(NC(=O)c2cc(S(=O)(=O)N3CCCCC3)c[nH]2)c1`, the survival is inactive: 69%.
The result for `CC1=C2C(N)=C(C(=O)Nc3ccccc3)SC2NC(C(F)(F)F)=C1` (configuration not stated) reads inactive: 95%; that for `CCOc1ccccc1C(=O)N=C1NC(=O)CS1`, inactive: 81%.
